# Results: patent publication US20240156901A1 (UNIVERSITY OF PITTSBURGH OF THE COMMONWEALTH SYSTEM OF …, published 2024)
# T1: Galectin-3-binding protein (endogenous, TS603 cells) (Homo sapiens, UniProt Q08380 19-585)
# T1 construct: Endogenous protein in the TS603 patient GBM neurosphere line; also called Gal3BP
# T1 sequence: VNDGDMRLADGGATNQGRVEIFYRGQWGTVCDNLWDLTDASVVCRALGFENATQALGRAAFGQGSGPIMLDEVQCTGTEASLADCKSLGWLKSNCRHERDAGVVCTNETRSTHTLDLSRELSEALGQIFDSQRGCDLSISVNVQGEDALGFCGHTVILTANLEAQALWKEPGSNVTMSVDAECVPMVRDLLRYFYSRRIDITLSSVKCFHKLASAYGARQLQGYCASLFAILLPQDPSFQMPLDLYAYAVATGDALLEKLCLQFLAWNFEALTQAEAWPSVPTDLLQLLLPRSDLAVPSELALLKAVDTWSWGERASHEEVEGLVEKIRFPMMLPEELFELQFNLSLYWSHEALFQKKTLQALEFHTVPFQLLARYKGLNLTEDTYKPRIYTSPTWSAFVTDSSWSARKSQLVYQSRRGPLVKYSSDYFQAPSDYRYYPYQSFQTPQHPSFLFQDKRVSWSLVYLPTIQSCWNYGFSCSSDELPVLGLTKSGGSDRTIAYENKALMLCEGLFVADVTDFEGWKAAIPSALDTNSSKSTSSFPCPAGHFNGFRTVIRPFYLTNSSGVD
# B1: V5-tagged CHI3L1 overexpressed in TS603 cells (other)
# chain: YKLVCYYTSWSQYREGDGSCFPDALDRFLCTHIIYSFANISNDHIDTWEWNDVTLYGMLNTLKNRNPNLKTLLSVGGWNFGSQRFSKIASNTQSRRTFIKSVPPFLRTHGFDGLDLAWLYPGRRDKQHFTTLIKEMKAEFIKEAQPGKKQLLLSAALSAGKVTIDSSYDIAKISQHLDFISIMTYDFHGAWRGTTGHHSPLFRGQEDASPDRFSNTDYAVGYMLRLGAPASKLVMGIPTFGRSFTLASSETGVGAPISGPGIPGRFTKEAGTLAYYEICDFLRGATVHRILGQQVPYATKGNQWVGYDDQESVKSKVQYLKDRQLAGAMVWALDLDDFQGSFCGQDLRFPLTNAIKDALAAT
# notes: also called TS603 CHI3L1_V5_OE; TS603-V5-CHI3L1; not shown: V5 tag
# Biological target: T1, Galectin-3-binding protein (endogenous, …)
# Assay: Co-IP from TS603 CHI3L1_V5_OE + LC-MS; table headed 'Candidates that interact with CHI3L1 by liquid chromatography-mass spectrometry (LC-MS) assay'
binder,measurement,value
B1,binding result,binds
